Laboratory results reported in ChEMBL document CHEMBL4888484, “Replenishing the malaria drug discovery pipeline: Screening and hit evaluation of the MMV Hit Generation Library 1 (HGL1) against asexual blood stage Plasmodium falciparum ,using a nano luciferase reporter read-out” (2022).
The campaign covered roughly 150,000 compounds. About 540 (0.36%) showed an effect of 50% or more. This is one part of the list.

Tested on: Plasmodium falciparum
Assay: Primary screen in NF54 nanoGlo assay, in single point, at 2uM, 72h; a lower Z score goes with more inhibition
Assay type: functional, Erythrocyte
Conditions: timepoint 72 hour

Row | SMILES | % Inhibition | Z score
1 | Cn1cc[n+](CC(=O)c2ccc(NC(=O)c3ccccc3)cc2)c1 | -1% | 0.22
2 | CC1(Nc2nc(CC(=O)N3CCOC[C@H]3C#N)cs2)CCCC1 | -7% | 1.45
3 | C[C@H]1CS(=O)(=O)CCN1C(=O)NCCCN(C)c1ccccc1 | -3% | 0.42
4 | c1cnn(-c2cc(-c3noc([C@@]45CCCC[C@@H]4NCC5)n3)ccn2)c1 | 1% | -0.13
5 | COc1ccc(CN2CCO[C@@H](CN(CC(C)C)C(=O)c3ccc(C(F)(F)F)cc3)C2)c(OC)c1 | 5% | -0.62
6 | CCC1(CC)CN(C(=O)[C@H]2CCCC[C@@H]2C(F)(F)F)CCS1(=O)=O | 0% | -0.07
7 | O=C(CCc1ccco1)NC(C1CC1)C1CC1 | 5% | -0.8
8 | COc1cc([C@@H]2C3=C(O)N(C(C)=O)CC3=Nc3cccc4c3c2cn4C(C)C)ccc1O | 2% | -0.23
9 | CN(C)C(=O)CCN1CCC[C@](C)(F)C1 | 5% | -0.98
10 | CCn1ncc(NC(=O)Cn2nc(C)c(-c3ccc4ncccc4c3)c2C)n1 | 10% | -1.75
11 | CN(C(=O)c1cnc2ccccn2c1=O)C1CCCCC1 | 10% | -0.99
12 | O=C1CCN(Cc2cc(C#CCO)cs2)CCN1 | -3% | 0.38
13 | CC1(C)COCCN1C(=O)CCCCOc1cccc(C#N)c1 | -3% | 0.34
14 | CCOCCN1CCCN(S(=O)(=O)N2CCCC2)CC1 | -11% | 2.18
15 | CCCN(Cc1c(C)nn(-c2ccccc2)c1Oc1ccccc1)C(=O)Nc1ccc(C(F)(F)F)cc1 | -12% | 1.11
16 | CN1CCN(S(=O)(=O)Cc2ccc(F)cc2)C[C@]12CCNC(=O)CC2 | -5% | 0.68
17 | CCn1ncnc1CNC(=O)N1CCC(c2ccc3cccnc3n2)CC1 | 20% | -2.33
18 | O=C(NCCCOC1CCOC1)NCC1CC1c1ccccc1 (stereo not given) | 1% | -0.19
19 | CS(=O)(=O)Nc1ccc(-n2ccnc2)cn1 | -12% | 1.56
20 | O=c1c2cnc3c(-c4ccc(Cl)cc4)cnn3c2ccn1CCN1CCOCC1 | -11% | 1.6
21 | CN(CCC1(O)CCCC1)Cc1cc2ccccc2[nH]1 | -6% | 1.28
22 | CC(N)C(=O)N1CCC(Oc2ccccc2Cl)C1 (stereo not given) | -8% | 0.7

Row | SMILES | % Inhibition | Z score
23 | CCOc1ccc(C(=O)NCC2(O)CCCC2)cc1 | -5% | 0.86
24 | Cc1cc(CN2CC(C)OC(C)C2)no1 (stereo not given) | -7% | 1.37
25 | COc1ccc([C@@H](CC(=O)N2CCCC2)c2cn(Cc3ccccc3)c3ccccc23)cc1 | -8% | 0.98
26 | CC(C)Cc1cc(C(=O)N[C@@H]2CCNC(=O)CC2)cc(O)n1 | -1% | 0.14
27 | Cc1noc(CN(C)C(=O)CCn2nc(C)c(C)c2C)n1 | -17% | 1.95
28 | Cc1oc(-c2ccc3ccccc3c2)nc1CN(C)C1CCOCC1 | -6% | 0.92
29 | N#Cc1nc(-c2cccs2)oc1N1CCCCC1 | -15% | 2.08
30 | O=S(=O)(c1ccc(F)c(Cl)c1)N1CC[C@H](Oc2cc(C(F)(F)F)ccn2)C1 | 3% | -0.6
31 | CCCc1nc(N2CCN(C(=O)CC(C)(C)C)CC2)c2c(-c3ccc4ccccc4c3)noc2n1 | 8% | -1.43
32 | c1ccc(COCCCN2CCc3nocc3C2)cc1 | 12% | -1.08
33 | COc1ccc(-c2cc3n(n2)C[C@@](C)(C(=O)NCc2ccccc2OC)N(Cc2ccccc2C)C3=O)cc1 | 9% | -1.36
34 | Cc1nc(C)c(C)c(NCc2ccc(CN3CCC(O)CC3)cc2)n1 | 6% | -0.77
35 | COc1ccc(NC(=O)CCC2CCN(Cc3ccc4ccccc4c3)CC2)c(OC)c1 | -12% | 1.74
36 | CC(=O)NCC(=O)N1CCC[C@H](Oc2ccncn2)C1 | 7% | -0.97
37 | COc1ccc(Cl)cc1NC(=O)c1cc(O)ncn1 | -3% | 0.57
38 | O=C(O)c1ccc(S(=O)(=O)Nc2ccc(-n3cccn3)c(Cl)c2)c(F)c1 | -1% | 0.12
39 | COC(=O)c1ncoc1C1CCN(C(=O)c2cc(C)cc(F)c2)CC1 | 2% | -0.26
40 | CC1(C)C[C@@](C)(c2ccc(Cl)cc2)c2ccccc2N1C(=O)COc1ccccc1 | 14% | -1.69
41 | c1ccc(-c2ncc[nH]2)c(OCCCCN2CCOCC2)c1 | -11% | 1.05
42 | O=S(=O)(c1ccc(F)cc1F)N(C1CC1)[C@H]1CCCc2ccccc21 | -7% | 1.13
43 | CO[C@H]1CCCN(C(=O)Nc2ccccc2N2CCCC2=O)CC1 | -5% | 0.91
44 | Cc1nnsc1C(=O)Nc1cccc(-c2nc3ccccc3s2)c1 | -19% | 3.22

Row | SMILES | % Inhibition | Z score
45 | CC(=O)N1CCC(C(=O)Nc2ccc(OCCCc3ccccc3)cc2)CC1 | -11% | 1.71
46 | CN1CCN(C)c2cc(NC(=O)CNC(=O)C(C)(C)C)ccc2C1 | 32% | -3.65
47 | CCCOc1cccc(CCNC(=O)N2CC3CC4CC3C2C4O)c1 (stereo not given) | -17% | 2.35
48 | CCCc1cnc(N(C)CC(C)(C)CO)nc1 | -2% | 0.38
49 | Cc1ccc(-n2[nH]c(C(=O)NCc3nccc(C(F)F)n3)cc2=O)cc1 | 3% | -0.34
50 | O=C(CCNS(=O)(=O)c1ccc(Cl)c(C(F)(F)F)c1)NCCc1ccc2c(c1)OCO2 | -1% | 0.12
51 | CCc1cnc(C)nc1-c1ccc(C(=O)N(C)[C@@H](CC)c2ccccn2)cc1 | -20% | 1.9
52 | CN1CCCc2cc(C(=O)N3CCN(c4ccc(F)cc4)CC3)sc21 | 0% | -0.03
53 | CCn1cc(C2=CCN(C(=O)NCc3cccc(F)c3)CC2)c2cccnc21 | -10% | 1.31
54 | COCc1cccc(C(=O)N2CCC[C@H]2C2CCC2)c1 | -22% | 2.78
55 | Cc1oc(C(C)C)nc1C(=O)N[C@H]1COCC1(C)C | 0% | 0.02
56 | CCc1noc2ncnc(NCc3ccc(OC)cc3)c12 | 12% | -1.42
57 | Cn1cc(Cl)c(CNC(=O)[C@@H]2CCCN2CC(F)(F)F)n1 | -2% | 0.25
58 | O=C(N[C@H]1CCCOC1)N[C@@H]1C[C@H]1c1ccccc1F | -15% | 2.86
59 | Cc1ccc(N2CCN(C(=O)Cn3nnnc3N)CC2)cc1 | -12% | 1.68
60 | O=C(CC1CCN(S(=O)(=O)c2cccs2)CC1)NC1CCN(Cc2ccccc2)CC1 | -15% | 2.01
61 | Cc1ncc(CN(C)C2CCC(C)CC2)cn1 (stereo not given) | -4% | 0.66
62 | C=CCNCCOc1ccc(Cl)cc1 | -1% | 0.08
63 | CCN1C(=O)[C@@H]2CC3(CCN(C(=O)CC(C)C)CC3)CN2C1=O | 7% | -0.84
64 | CCc1ccc(C2(c3ccc(CC)cc3)C[C@@H]2C(=O)NCc2ccccc2)cc1 | -9% | 1.42
65 | Cc1noc(C)c1S(=O)(=O)N(C)CCOc1c(Cl)cccc1Cl | 4% | -0.59
66 | O=C(O)c1cc2c(cc1C(=O)Nc1ccc(Cl)cc1)=[O+]c1ccccc1-c1ccccc1[O+]=2 | 33% | -4.71

Row | SMILES | % Inhibition | Z score
67 | CCO[C@@H](C)c1nccn1Cc1nc(C2CC2)n[nH]1 | -4% | 0.37
68 | CCCn1c(C)cnc1C[C@H]1CCN(C(=O)c2ccc(OC)cc2)C1 | -11% | 1.38
69 | CCCNC(=O)c1csc(COc2ccc3c(c2)[C@H](c2ccc(C)cc2)N(C(=O)CC(C)C)CC3)n1 | -8% | 1.1
70 | O=C([C@H]1CCCN(c2ncnc3c2nc2n3CCCCC2)C1)N1CCc2ccccc2C1 | -6% | 0.89
71 | Cc1cccc(-c2nn(-c3ccccc3)c3nc(OCC(=O)N4CCCCC4)cc(C)c23)c1 | -1% | 0.09
72 | CCCc1cnc(NCc2cnn(CC)c2)s1 | -1% | 0.18
73 | CN(C)c1nc[nH]c(=O)c1NC(=O)c1ccc(F)c(Cl)c1F | -10% | 1.64
74 | CCOC(=O)c1coc(N2CCC[C@]3(CCCN(Cc4ccccc4)C3)C2)n1 | -1% | 0.14
75 | O=C(c1coc(CN2CCN(Cc3ccccc3)CC2)n1)N1CCC[C@H]1CO | -11% | 2.1
76 | Cn1nc(C(N)=O)c2c1CCN(c1ccncc1F)C2 | 6% | -1.28
77 | C[C@H](NC(=O)c1coc(NC(=O)c2ccsc2)n1)c1ccccc1 | -5% | 0.65
78 | O=C(Cc1cccs1)N1CCC(Nc2cccn3ncnc23)CC1 | 2% | -0.23
79 | COc1ccc(CN2Cc3ccccc3OCC2=O)cc1OC | -1% | 0.1
80 | CN(Cc1cncn1C)CC1(N2CCOCC2)CCCCC1 | -3% | 0.55
81 | O=S(=O)(Cc1ccco1)C1CN(S(=O)(=O)Cc2cc(F)ccc2F)C1 | -14% | 1.75
82 | CCc1nccn1CCC(=O)N(C)C[C@H]1CCOC1 | 1% | -0.13
83 | CCC1CC(CC(=O)N[C@@H]2C[C@H]2c2cc(F)c(F)c(F)c2)CCO1 (stereo not given in full) | -3% | 0.5
84 | Cc1cc(O)c(C(=O)N2CCC([C@H](C)N3CCN(C)CC3)CC2)cn1 | -14% | 1.7
85 | O=C(Nc1ccccc1-c1nc2ccccc2[nH]c1=O)c1ccccc1Cl | -5% | 0.73
